The list shows a part of the results. At the low end of the ranking, values are background and their order means little.

In the assay the test system is MYC (p64) + MAX (p21), in MYC:MAX. In words: protein-binding microarray (anti-MAX antibody). The settings on record: PBM: 15 mM Tris-HCl pH 7.5, 100 mM KCl, 0.075% NP40, 7.5 mM beta-mercaptoethanol, 375 ng/ul BSA, 8 ng/ul poly(dA-dT):(dA-dT), 550 ng complex, 60 min, room …; high values mean tight binding; double strand, one strand shown; sequences stand for … in CCGGC…TTAATAGCTAAGATTACTATATCGACG
With TGACCGGTGGTA, the binding signal (log2 normalized fluorescence) amounted to 0.139. Turning to TGGCACTGGGTA, the binding signal (log2 normalized fluorescence) turned out to be 0.157.

For TGAAGGAGTGTA, the binding signal (log2 normalized fluorescence) worked out at 0.0321. For TCACACGTGTTA, the binding signal (log2 normalized fluorescence) turned out to be 0.827. TGAGCACTCGTA: the binding signal (log2 normalized fluorescence) worked out at 0.166. TATCACCTGGTA: the binding signal (log2 normalized fluorescence) was 0.305. On to TGACGGTTCGTA, for which the binding signal (log2 normalized fluorescence) is 0.0156. On to TGAGAGAGCGTA, for which the binding signal (log2 normalized fluorescence) was 0.11. Then TTCCGCCCAGGT, with 0.044; and CGACACCTGTTA, with 0.432. The figure for TGAACGAATGTA is 0.267. Turning to TGAGCCACGGTA, the binding signal (log2 normalized fluorescence) was 0.281.

For the sequence TGAGAGCCTGTA, the binding signal (log2 normalized fluorescence) is 0.173.

Take TGATAGGTGGGA: the binding signal (log2 normalized fluorescence) was 0.118. As for TGAAAATCGGTA, the binding signal (log2 normalized fluorescence) is -0.137.

As to TGATATTATGTA, the binding signal (log2 normalized fluorescence) was -0.025.

Consider TGATTGTAGGTA, for which the binding signal (log2 normalized fluorescence) is -0.0389. Turning to TGACACTAAGTA, the binding signal (log2 normalized fluorescence) was found to be 0.05. Consider TGACCAGAAGTA, for which the binding signal (log2 normalized fluorescence) is 0.0928.

With TGAGGGAAGGTA, the binding signal (log2 normalized fluorescence) is -0.0621. For the sequence TGAAGGAGAGTA, the binding signal (log2 normalized fluorescence) is -0.0177. On to TGATCCTGCGTA, for which the binding signal (log2 normalized fluorescence) is -0.0923.

As for TGATCACGCGTA, the binding signal (log2 normalized fluorescence) was 0.482.

With TGAGCACACGTA, the binding signal (log2 normalized fluorescence) worked out at 0.338. On to TGACACGTGCGC, for which the binding signal (log2 normalized fluorescence) was determined as 0.633.

In the case of TGAATGGCCGTA, the binding signal (log2 normalized fluorescence) is 0.135.

For the sequence TGACCTGGAGTA, the binding signal (log2 normalized fluorescence) worked out at 0.0198. On to TGAATATTGGTA, for which the binding signal (log2 normalized fluorescence) was -0.117. Then TGAGGTGGCGTA, with -0.0184; and TGAAGGATCGTA, with -0.00561; and TGATTCGACGTA, with -0.0682.

In the case of TGACTGAGAGTA, the binding signal (log2 normalized fluorescence) was -0.185. The figure for TGAGCACCCGTA is 0.0892. Turning to TGACTCTCTGTA, the binding signal (log2 normalized fluorescence) turned out to be 0.126. In the case of TTAGACGTGGTA, the binding signal (log2 normalized fluorescence) stood at 0.235. The figure for TGATTTAGCGTA is -0.0372. Take TCACACCTCGTA: the binding signal (log2 normalized fluorescence) came to 0.481.

Turning to TGAAGCGTAGTA, the binding signal (log2 normalized fluorescence) stood at 0.11. Regarding TGAAACAGCGTA, the binding signal (log2 normalized fluorescence) is 0.0539. Regarding TGAGCTGCCGTA, the binding signal (log2 normalized fluorescence) turned out to be 0.0267. Regarding TGACCTCTGGTA, the binding signal (log2 normalized fluorescence) was -0.0273. Then TGGCACGTGCTA, with 0.722; and TGAATAAACGTA, with 0.257; and TGACAACCGGTA, with 0.0343. For TGACTGAAAGTA, the binding signal (log2 normalized fluorescence) is -0.165. For the sequence TGATGCTGCGTA, the binding signal (log2 normalized fluorescence) is 0.0264.

In the case of TGACGTGCCGTA, the binding signal (log2 normalized fluorescence) is 0.15. In the case of TGATTTATAGTA, the binding signal (log2 normalized fluorescence) was -0.149. For the sequence TGATTTCGTGTA, the binding signal (log2 normalized fluorescence) was 0.133. TGATGAGCGGTA: the binding signal (log2 normalized fluorescence) was 0.0769. The figure for TGAATCTCAGTA is 0.0284; for TGAAGACAGGTA it is 0.261; for TGAGACCTCGTA it is 0.245. TGACTCAGAGTA: the binding signal (log2 normalized fluorescence) is -0.0401. Regarding TGCCATGTGGTT, the binding signal (log2 normalized fluorescence) amounted to 0.633. The figure for CGCGACGTGGTA is 0.471; for TGACCGATCGTA it is 0.251. As to TGAAAAGGCGTA, the binding signal (log2 normalized fluorescence) was 0.0557. Turning to TGAGTTACGGTA, the binding signal (log2 normalized fluorescence) was determined as 0.0922. With TGGCATGTGGTA, the binding signal (log2 normalized fluorescence) was 0.502. On to TGGCACGTGGTA, for which the binding signal (log2 normalized fluorescence) was 0.809. On to TACGACGTGGTA, for which the binding signal (log2 normalized fluorescence) amounted to 0.466.

Consider TGACCAATCGTA, for which the binding signal (log2 normalized fluorescence) is 0.0979.

For TGAATCACGGTA, the binding signal (log2 normalized fluorescence) was 0.217. Take ATACACTTGGTA: the binding signal (log2 normalized fluorescence) stood at 0.425. Take TGATTATACGTA: the binding signal (log2 normalized fluorescence) is -0.0532. In the case of TGACCATTGGTA, the binding signal (log2 normalized fluorescence) came to 0.0788. Regarding TGACACGACTTA, the binding signal (log2 normalized fluorescence) was determined as 0.373. Regarding TGACCTTCCGTA, the binding signal (log2 normalized fluorescence) was 0.159. The figure for TGACATCCCGTA is 0.338; for TGAGACCTGGTA it is 0.103. Take TGACACGTGCTC: the binding signal (log2 normalized fluorescence) stood at 0.813. With TTACACGTGGAA, the binding signal (log2 normalized fluorescence) worked out at 0.667.

Regarding TGAGCGGTAGTA, the binding signal (log2 normalized fluorescence) was -0.134. Take TGATCTGTAGTA: the binding signal (log2 normalized fluorescence) was -0.135. Turning to TGATCGGGCGTA, the binding signal (log2 normalized fluorescence) was -0.25. The figure for TTTCCCGTGGTA is 0.301; for TGAACGAAAGTA it is 0.0903; for TGACGAGAGGTA it is 0.127.

As to TGGAGCGTGGTA, the binding signal (log2 normalized fluorescence) stood at 0.418. On to TGATTACCAGTA, for which the binding signal (log2 normalized fluorescence) is -0.0812.

TGACGCACTGTA: the binding signal (log2 normalized fluorescence) was 0.457.

For TGATGACAGGTA, the binding signal (log2 normalized fluorescence) was found to be 0.0197. TGAGCGGGGGTA: the binding signal (log2 normalized fluorescence) came to 0.74.

With ATACACGTGGTA, the binding signal (log2 normalized fluorescence) stood at 0.842. As for TAAGTGACGTAG, the binding signal (log2 normalized fluorescence) was -0.0243. For TGAAAAGTCGTA, the binding signal (log2 normalized fluorescence) is -0.168.

As to TGACTGTTAGTA, the binding signal (log2 normalized fluorescence) amounted to 0.0407. For the sequence TGACATAGCGTA, the binding signal (log2 normalized fluorescence) turned out to be 0.281. Turning to TGACACGACATA, the binding signal (log2 normalized fluorescence) amounted to 0.459. Consider TGAACATATGTA, for which the binding signal (log2 normalized fluorescence) worked out at 0.423.

In the case of TGAATAGTCGTA, the binding signal (log2 normalized fluorescence) was -0.124. Regarding TGAGAAATCGTA, the binding signal (log2 normalized fluorescence) is -0.121. The figure for TGATGTTTTGTA is 0.192; for GGAGCCGTGGTA it is 0.182; for TGACACGCGATC it is 0.577.

Regarding TGATAGATAGTA, the binding signal (log2 normalized fluorescence) was -0.136. As to TGAGATCTCGTA, the binding signal (log2 normalized fluorescence) was found to be 0.0155. Then CGACACGGCGTA, with 0.161. In the case of TGAGTGGCTGTA, the binding signal (log2 normalized fluorescence) was 0.275.

As to TGACAAAACGTA, the binding signal (log2 normalized fluorescence) is 0.0336. Turning to TGAGTTGCAGTA, the binding signal (log2 normalized fluorescence) is -0.0745.

As to AGACACGAGGTA, the binding signal (log2 normalized fluorescence) was determined as 0.93.

Turning to TGATATCCAGTA, the binding signal (log2 normalized fluorescence) worked out at 0.022. As for TGATATGGAGTA, the binding signal (log2 normalized fluorescence) is -0.0756. For the sequence TGAGGGGTTGTA, the binding signal (log2 normalized fluorescence) came out at 0.368. As to TGAAATCCTGTA, the binding signal (log2 normalized fluorescence) was found to be 0.00511. Consider TGATTATCTGTA, for which the binding signal (log2 normalized fluorescence) is -0.165.

Turning to TGATCCGTTGTA, the binding signal (log2 normalized fluorescence) is 0.0506. With TGAACCACCGTA, the binding signal (log2 normalized fluorescence) came out at 0.213.

In the case of TGATCACGTGTA, the binding signal (log2 normalized fluorescence) was 0.717. Turning to TGATACCTGGTA, the binding signal (log2 normalized fluorescence) was -0.151. Turning to TGAATTCCGGTA, the binding signal (log2 normalized fluorescence) was -0.11. With TGACCACTGGTA, the binding signal (log2 normalized fluorescence) is 0.166. The figure for TGATCCTCCGTA is 0.0237; for TGAGGACTGGTA it is -0.0575; for TGACATTATGTA it is 0.289. Take TGAGTTATCGTA: the binding signal (log2 normalized fluorescence) is -0.213. Take TGATCCCACGTA: the binding signal (log2 normalized fluorescence) was 0.155. As to TGAACAAGTGTA, the binding signal (log2 normalized fluorescence) amounted to 0.224.

Consider TGAACGATCGTA, for which the binding signal (log2 normalized fluorescence) stood at 0.151. On to TGAACGTTTGTA, for which the binding signal (log2 normalized fluorescence) was found to be 0.39. As to TGATGCTTGGTA, the binding signal (log2 normalized fluorescence) was determined as 0.0812. Then TGAAACGGTGTA, with 0.247; and TGAGGTTTAGTA, with -0.225; and TGAGAGATGGTA, with -0.0536. As for AGACAGGTGGGA, the binding signal (log2 normalized fluorescence) came out at 0.489.

Regarding TGACATCAAGTA, the binding signal (log2 normalized fluorescence) stood at 0.259. The figure for TCAGAGACGTTG is 0.0615; for TGACTCGAGCTA it is 0.329; for TGACTATTTGTA it is 0.0119. TGAGCTTCGGTA: the binding signal (log2 normalized fluorescence) was -0.19. As to TGATACGGAGTA, the binding signal (log2 normalized fluorescence) was -0.134. In the case of TGATTGGTGGTA, the binding signal (log2 normalized fluorescence) stood at 0.00492.

Regarding TGAGATCTTGTA, the binding signal (log2 normalized fluorescence) is -0.0799. The figure for TGAACTTTTGTA is -0.0438; for TGATGGCATGTA it is 0.255. As to AGACGCATGGTA, the binding signal (log2 normalized fluorescence) is 0.7.

The values above are taken from PMC5515408.
